Experimental data reported in US10287311B2, “Modified fluorinated nucleoside analogues” (priority 2003, dated 2019).

How the values were obtained:
1b (Btat) replicon = test: microbe, parasite or virus in culture; details: Hepatitis C virus
1b (Ntat) replicon = test: microbe, parasite or virus in culture; details: Hepatitis C virus

In the case of `C[C@@]1(F)[C@H](O)[C@@H](CO)O[C@H]1n1ccc(N)nc1=O`, the EC90 (1b (Btat) replicon) is reported as 11.5 µM and the EC90 (1b (Ntat) replicon) is reported as 3.8 µM.
`C[C@@]1(O)[C@H](O)[C@@H](CO)O[C@H]1n1ccc(N)nc1=O` [2′-C-methylcytidine, reference compound] gave an EC90 (1b (Btat) replicon) of 31.1 µM and an EC90 (1b (Ntat) replicon) of 27.2 µM.
